According to article PMC4336329 (PLoS ONE, 2015):
The whole screen tested about 310,000 compounds, of which about 2,200 (0.71%) showed an effect of 50% or more. The effect is printed as a negative number. The list shows a part of the results.

These compounds were tested against human ether-à-go-go-related gene (hERG) potassium channel (human, UniProt Q12809) (assay: primary screen, population patch clamp on CHO cells stably expressing hERG).
Chain of human ether-à-go-go-related gene (hERG) potassium channel (Q12809 whole entry, looked up): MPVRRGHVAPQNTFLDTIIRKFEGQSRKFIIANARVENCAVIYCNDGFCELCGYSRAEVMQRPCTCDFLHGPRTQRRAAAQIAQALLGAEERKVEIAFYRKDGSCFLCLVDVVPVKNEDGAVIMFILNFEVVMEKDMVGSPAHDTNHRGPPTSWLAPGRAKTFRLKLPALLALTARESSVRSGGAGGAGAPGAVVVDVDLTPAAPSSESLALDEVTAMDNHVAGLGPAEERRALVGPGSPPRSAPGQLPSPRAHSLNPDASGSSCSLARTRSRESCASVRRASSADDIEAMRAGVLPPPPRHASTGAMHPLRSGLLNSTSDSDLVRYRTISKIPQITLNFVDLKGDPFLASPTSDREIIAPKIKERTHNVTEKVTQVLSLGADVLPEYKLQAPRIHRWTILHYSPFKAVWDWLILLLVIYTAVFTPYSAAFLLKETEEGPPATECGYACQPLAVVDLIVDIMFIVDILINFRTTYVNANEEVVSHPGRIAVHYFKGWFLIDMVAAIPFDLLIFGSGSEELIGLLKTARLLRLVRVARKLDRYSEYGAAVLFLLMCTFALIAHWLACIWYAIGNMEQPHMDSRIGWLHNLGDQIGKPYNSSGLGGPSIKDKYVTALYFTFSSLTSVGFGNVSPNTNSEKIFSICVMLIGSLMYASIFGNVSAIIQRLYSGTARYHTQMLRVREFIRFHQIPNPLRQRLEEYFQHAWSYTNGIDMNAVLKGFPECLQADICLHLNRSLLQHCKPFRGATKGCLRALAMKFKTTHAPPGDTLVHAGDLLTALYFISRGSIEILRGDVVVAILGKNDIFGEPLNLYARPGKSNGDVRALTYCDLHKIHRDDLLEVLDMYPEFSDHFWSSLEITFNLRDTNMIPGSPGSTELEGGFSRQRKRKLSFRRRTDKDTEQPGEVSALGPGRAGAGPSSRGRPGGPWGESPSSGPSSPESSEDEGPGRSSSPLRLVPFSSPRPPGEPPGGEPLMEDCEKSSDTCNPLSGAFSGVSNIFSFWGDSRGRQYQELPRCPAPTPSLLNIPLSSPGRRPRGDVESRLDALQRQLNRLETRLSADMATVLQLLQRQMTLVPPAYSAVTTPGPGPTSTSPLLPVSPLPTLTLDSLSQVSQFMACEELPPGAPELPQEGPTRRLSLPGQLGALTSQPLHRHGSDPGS

| Structure (SMILES) | hERG current change (%, negative = inhibition) at 1uM |
| --- | --- |
| CN(C)c1ccc(/C=N/NC(=O)c2nonc2N)cc1[N+](=O)[O-] | 16.6% |
| Cc1ccc(OC(C)C(=O)N=Nc2c(O)[nH]c3ccc([N+](=O)[O-])cc23)cc1 (centres unmarked) | -7.55% |
| O=c1oc2ccccc2cc1N1CCOCC1 | 5.48% |
| CC(C)(C)c1cnnn1-c1ccc(NC(=O)c2ccc(Br)o2)cc1 | 7.17% |
| O=C(CN1CCN(S(=O)(=O)c2ccc(F)cc2)CC1)NCc1cccs1 | -0.596% |
| CCOC(=O)C1CCCN(Cc2ccccc2Cl)C1 (centres unmarked) | 1.6% |
| COc1ccc(NC(=O)CN2C(=O)NC(C)(C3CC3)C2=O)c(OC)c1 (centres unmarked) | 4.28% |
| O=C(NCc1cccnc1)c1cc(Cl)ccc1[N+](=O)[O-] | 14.9% |
| O=C(OCc1ccc(Cl)cc1Cl)c1cccnc1Cl | 1.14% |
| COc1cc(CNc2nc(C)c([N+](=O)[O-])c(C)c2C#N)cc(OC)c1OC | 8.09% |
| CC(=O)NC(CC(=O)OC(C)C(=O)Nc1ncc(Cl)cc1Cl)c1ccccc1 (centres unmarked) | 11.8% |
| O=C1c2ccccc2C(Nc2ccc3c(c2)OCO3)N1Cc1ccco1 (centres unmarked) | 13.2% |
| COc1ccc(C(=O)NCC(C)(C)N2CCOCC2)cc1S(=O)(=O)N1CCCC1 | -0.111% |
| Cc1cc(N2C(=O)C3CCCN3C2c2cccc(Cl)c2)no1 (centres unmarked) | 10.7% |
| Cc1onc(-c2c(F)cccc2Cl)c1C(=O)NCc1ccc(F)cc1 | 11.5% |
| COc1ccc(CCNC(=O)c2ccc(Cl)cc2)cc1 | 17.9% |
| Cc1ccc(Nc2cc(C)nc3ccc(C)cc23)cc1 | -25% |
| COc1ccccc1Nc1nc2ccccc2n2cnnc12 | 3.54% |
| Cc1ccc(OCCNC(=O)C2CC(=O)N(c3ccc(C)cc3)C2)cc1 (centres unmarked) | 3.23% |
| Cn1cc(SCC(=O)Nc2nc3ccccc3s2)c2ccccc21 | 0.474% |

| Structure (SMILES) | hERG current change (%, negative = inhibition) at 1uM |
| --- | --- |
| COc1ccccc1C(=O)NCCC(=O)NC1CCCCC1C (centres unmarked) | 7.92% |
| CCN(c1ccccc1)S(=O)(=O)c1ccc(C(=O)Nc2ccccn2)cc1 | -1.12% |
| CC(=O)c1ccc(OC(C)C)c(CSC(=N)N)c1.Cl | 0.799% |
| COc1ccc2c(c1)C(C1C(=O)CCCC1=O)c1ccccc1O2 (centres unmarked) | 7.82% |
| CC1(C)CC(=O)C(CC(=O)NC(=O)NCc2ccccc2)=C(O)C1 | -5.53% |
| CCOc1ccc(Cc2nc(C)c(CC(=O)N3CCCCC3)c(=O)[nH]2)cc1 | -8.57% |
| O=c1[nH]c(C(F)(F)F)nc2c1nnn2Cc1ccccc1F | 11.2% |
| O=S(=O)(c1ccccc1)N1CCN(S(=O)(=O)N2CCCCC2)CC1 | -3.4% |
| COC(=O)c1ccc(NC(=O)CCC(=O)c2ccc(F)cc2)cc1 | 19.7% |
| C=CCn1c(C)cc(C(=O)CN2NS(=O)(=O)c3ccccc3C2=O)c1C | -4.73% |
| CC1(C)Cc2c(c(N3CCOCC3)nc3sc4c(N5CCOCC5)nnnc4c23)CS1 | 15.5% |
| COc1cc(OC)cc(C(=O)NC2CC3CCC(C2)N3C)c1 (centres unmarked) | 7.65% |
| COc1ccc(OC)c(NC(=O)C2CCCN2C(=O)OCc2ccccc2)c1 (centres unmarked) | 2.73% |
| CSc1nc2ccc(NC(=O)c3ccccn3)cc2s1 | 5.4% |
| CCCCN(C(=O)CN1C(=O)C2CCCCC2C1=O)c1c(N)n(CCC)c(=O)[nH]c1=O (centres unmarked) | 15.8% |
| COc1ccc(OC)c(NC(=O)CSc2nnc(NC(=O)c3ccco3)s2)c1 | 13.5% |
| S=c1[nH]nc(C2CCCCC2)n1/N=C/c1ccc(Br)cc1 | 0.804% |
| Cc1cn2c(-c3ccc(Cl)cc3)nnc2s1 | 0.473% |
| Cn1c(=O)c2cc(NC(=O)c3ccccc3Cl)c(=O)oc2n(C)c1=O | 4.12% |
| O=C(CC1CC2CCC1C2)N1CCN(S(=O)(=O)c2ccccc2F)CC1 (centres unmarked) | -0.997% |

| Structure (SMILES) | hERG current change (%, negative = inhibition) at 1uM |
| --- | --- |
| Cc1cc(NC(=O)COC(=O)c2cc(S(=O)(=O)N3CCOCC3)ccc2N2CCCCC2)no1 | -3.47% |
| Cc1ccc(NC(=O)Nc2c(C)[nH]c(=O)[nH]c2=O)cc1Cl | 12.9% |
| CN1CCN(NC(=O)c2ccccc2F)CC1 | 11.7% |
| O=C(O)c1cc2c(cc1Cl)N1CCCCCC1=NS2(=O)=O | 3.58% |
| COC1CCCCC1NS(=O)(=O)c1ccc(Cl)cc1 (centres unmarked) | 11.8% |
| CCn1c(SCC(=O)c2c[nH]c3ccccc23)nnc1-c1cccs1 | 14.7% |
| COc1ccc(CNC(=O)c2ccc(C)o2)cc1 | -5.18% |
| CCCNC(=O)COC(=O)/C=C/c1cccc(F)c1 | 6.98% |
| O=C(Nc1ccc(F)cc1)c1ccccc1F | 7.35% |
| CCOC(=O)CSc1nc(C(C)C)nc2sc(C)c(C)c12 | 13.5% |
| Cc1ccc2c(c1)C(c1ccccc1)N(C(=O)c1ccc(Br)cc1)CC(=O)N2 (centres unmarked) | 14% |
| CC(C)CC1NC(=O)N(CC(=O)N2CCN(S(=O)(=O)c3ccc4ccccc4c3)CC2)C1=O (centres unmarked) | -0.576% |
| CCC(C(=O)O)N1C(=O)/C(=C/C(C)=C/c2ccccc2)SC1=S (centres unmarked) | 6.92% |
| Cc1cc(C)c2nc(N3CCC(C(=O)NCCCN4CCCCC4)CC3)sc2c1 | 6.06% |
| O=c1cc(CSc2ccccc2)nc(-c2ccccc2)[nH]1 | 6.93% |
| CC(C)N1CCC(N2CCN(Cc3cccc4nonc34)CC2CCO)CC1 (centres unmarked) | 9.37% |
| Cc1ccccc1NC(=O)NC1CCCCCCC1 | 7.53% |
| Nc1ccc2c(c1)Oc1ccccc1C=C2 | 2.34% |
| Cc1noc(C)c1S(=O)(=O)N(C)CC(=O)Nc1ccc(F)cc1 | 9.13% |
